In publication PMC12136788:
Some of the results follow.

T1: UNK ZnF1-3 (human, UniProt Q9C0B0 31-174)
T1 sequence: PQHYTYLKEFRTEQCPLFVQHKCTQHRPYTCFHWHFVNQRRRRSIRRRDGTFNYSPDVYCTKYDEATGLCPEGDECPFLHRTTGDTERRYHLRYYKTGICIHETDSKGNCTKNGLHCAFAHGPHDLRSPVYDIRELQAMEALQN

B1: chr11:30046843:30046844:-_ENSMUSG00000020315_ENSMUST00000011877|mus_hu|FALSE|FALSE (ssRNA)
RNA: GGGAGUUCUACAGUCCGACGAUCGUAGUGGUAAUAAGUCACCACAUAAGUGAUUAUGGACUUCUCAUCAGGAUGGUCCACGCUGAUGUCUUCGGGGUCCAACAGUUUAGUGAGGCCGAGGUGCUGUUCUGCCAGAUUAAAUGCCAACAGAGGAUUGAGCAUCA
B2: chr4:137866854:137866855:+_ENSMUSG00000028757_ENSMUST00000030538|mus_mus|FALSE|FALSE (ssRNA)
RNA: GGGAGUUCUACAGUCCGACGAUCGUCAUCACCAUCAAAGGGGACCCACUUGCCAUUGGAGAGCUGUUCUAUGAUGAUGCUAUACUCCACCAAGUCGGUGACAGUGUAGGCAUUGGGUGGAGCCAUCUCGCCCACCCGGUGAUGCAACAGAGGAUUGAGCAUCA
B3: chr1:16667403:16667404:+_ENSMUSG00000025940_ENSMUST00000065373|mus_mus|FALSE|FALSE (ssRNA)
RNA: GGGAGUUCUACAGUCCGACGAUCGUCAUAACCCAUUAGAUGGUUAUAGUCUUCAGGGUUUAAAAAGAGUGCUGGAUUAACUAAUAGCGAUUUUGUUUUAGCAUAAAAGCUGGUGAAUAUAUGUGCGCUCUCUGGAAUUGUCACCAACAGAGGAUUGAGCAUCA
B4: chr5:145543945:145543946:-_ENSG00000133706_ENST00000545646|hu_hu|hu_hu_hu_mus_True|1_68 (ssRNA)
RNA: GGGAGUUCUACAGUCCGACGAUCCUGAACGGCCAGUGGUGGGAAAUAAUCAAGCCAGUGCUCUGCUUCAGAAAAUUUCACUAUGUCGUCAUCAGAGAGCCCAAGGGAUUUCAUAAUGUCCCACUGGUACUUAGAAGAUCCAGCCAACAGAGGAUUGAGCAUCA
B5: chr14:35078925:35078926:-_ENSG00000129515_ENST00000362031|hu_hu|motif|central (ssRNA)
RNA: GGGAGUUCUACAGUCCGACGAUCAAAAUUUGGCAAUGAACUCUUUGUGUGAACAGUGAAUUUUACUUUAUCCCGCUCACGGAGAGCAUCAGAAAUGUCCACCUGCAGAGCAGCAUCACUUUGAAGAUCUACAUUUAUUGCUUUCAACAGAGGAUUGAGCAUCA
B6: chr3:49066234:49066235:-_ENSG00000178035_ENST00000326739|hu_mus|FALSE|FALSE (ssRNA)
RNA: GGGAGUUCUACAGUCCGACGAUCAGACGUCAAGUCCACCUGAUCUGCAGUGAAGUCGAUAUACCCAGGAAGAAUGAGAAAAUCAUUGUAGGUGAGGCCGUCCCCGCAGUUGAAGAGCUGCUGCGCUGUGAGCCCGUCGUCCGGCAACAGAGGAUUGAGCAUCA
B7: chr10:34018870:34018871:+_ENSMUSG00000039485_ENSMUST00000047935|mus_mus|motif|central (ssRNA)
RNA: GGGAGUUCUACAGUCCGACGAUCACGGUUCUUCACAGUACAUAGAUAUCGGGAACACAGCAGAAAGUAUGAAGCCUGGCGGGUUCUUGGUAAGAAUGUGUCAAGCUUUCUUGUGGCAGAGAACCACUUAAAAAAAAAAAUGAACAACAGAGGAUUGAGCAUCA
B8: 61442556_61442676_1405_CDS_ENSG00000126814_ENST00000261249|human|control|control (ssRNA)
RNA: GGGAGUUCUACAGUCCGACGAUCGAGGAAGUCUUUCCCAUCCAAGUUGAAGACUUUCACCUUUUGGUCCACUUUAUUUAAUUUACAGUUGUACAACAGCCAUUUAUGAGAUUCAGGAUUGAGAUCAUUGGCAAAUACAGUGCACAACAGAGGAUUGAGCAUCA
B9: chr18:60570258:60570259:+_ENSG00000081913_ENST00000262719|hu_hu|FALSE|FALSE (ssRNA)
RNA: GGGAGUUCUACAGUCCGACGAUCCUUAUUGUCUCGUAGGUCAAGCUGAGUAACAUGCUGUAGAAAGUCCACUUCAUCUGCUAUCAGCUUCCUAAUUACGUUCAACCUUAGAUCCACAUGUUUAAUGUGAGGCAUUUUUCUUAACAACAGAGGAUUGAGCAUCA
B10: chrX:102931600:102931601:-_ENSG00000123562_ENST00000441076|hu_mus|motif|central (ssRNA)
RNA: GGGAGUUCUACAGUCCGACGAUCGUCCUCCACCAGCCACGGUUUUAAUUCUUCAGGGAUCUUCACCUUCACCUCCAUCCGGCUCUUGAAUGCCUCCUCGCUCUCCACAGUGGGGUCAGCCCGUGCCCUUUUCUUCCGAGGGGGCAACAGAGGAUUGAGCAUCA
B11: chr2:230636304:230636305:-_ENSG00000153827_ENST00000389045|hu_hu|motif|central (ssRNA)
RNA: GGGAGUUCUACAGUCCGACGAUCGUACUGAAGAUGACUGAGUGGGAAGACUGAUUCAAAUCCAUCUCUGAACGAAUCAAAUUGCCGGGAAACGCCUUCAUUUAGUGCCCAGAAUAUAACCAGUCUUAGAUACUCCUCUAAAUUCAACAGAGGAUUGAGCAUCA
B12: chr8:30643436:30643437:-_ENSG00000104695_ENST00000221138|hu_mus|FALSE|FALSE (ssRNA)
RNA: GGGAGUUCUACAGUCCGACGAUCGAAUUCUUAAAAAAUAAAACUCCAACUCUAUAAUCCAUGCCAGUUAAACUUGUUAACUAAAUUUCCAAGUAAGCGCAAAGGAGACGAAGCAGUCAGUGACCCUUUUUGCUUAACCAGUCACAACAGAGGAUUGAGCAUCA
B13: 29788120_29801711_2703_CDS_ENSG00000197321_ENST00000375400|human|control|control (ssRNA)
RNA: GGGAGUUCUACAGUCCGACGAUCCUCCUCUCUCACAGUGAUGAGCUGCUUCCUCUCCUCAAUCGUCAUUUGGCUCUCUCGACUUUCUGUGACCCGCUUCUUGAUGAGGGACCGCCCUGCUUCCUGGGUGUGCAGGCUGCUGGCCAACAGAGGAUUGAGCAUCA
B14: 180814855_180814975_3466_3pUTR_ENSMUSG00000016346_ENSMUST00000149964|mouse|control|control (ssRNA)
RNA: GGGAGUUCUACAGUCCGACGAUCCAGUGCCACACCAGGAAAAAGCAGAGGCCAUGAAGUGUCAACUCAUACCUUCUGGGCUACAGUGCCAGGGAUGAGCCAGCCAGAACCUGCUGAAGAAACCUUUUCAGAAAAGGCUGUGAGCAACAGAGGAUUGAGCAUCA
B15: chr1:115275314:115275315:-_ENSG00000009307_ENST00000339438|hu_mus|motif|central (ssRNA)
RNA: GGGAGUUCUACAGUCCGACGAUCAACCUCUAUGUUGGUUGCUCGUUCCAAUUUGUCACGUCGGUCUGUUGAAAUAUUAAACCGGACAUGGUCACCUUCCAGCAGGGUCACUUUGGAUUUUGUGUCUUUGUCUCCAAAGGGAAGCAACAGAGGAUUGAGCAUCA
B16: chr2:32530853:32530854:+_ENSG00000119820_ENST00000437765|hu_hu|FALSE|FALSE (ssRNA)
RNA: GGGAGUUCUACAGUCCGACGAUCAAACAGAAUUUAAAAUUCUGACCCAAAAAUCCCAGAUAACUGCAAUUGCUUAAUUAAAUACAAAAAAAAAUUGUUUUAAAAAGCGCUUAGACUUCCCUUUCCAUCUGGAACAUGUAAAAUCAACAGAGGAUUGAGCAUCA
B17: chr12:39763582:39763583:-_ENSG00000139116_ENST00000544797|hu_mus|FALSE|FALSE (ssRNA)
RNA: GGGAGUUCUACAGUCCGACGAUCCUCUAGGAACUGGGCAUUCACUUUGAAUUCAGGAGGGGGCAGCCCGUUUUUAAUCGCUGAGGUCUUUUUCUCAUCAAUACUCUUGAACAGGUGUCUAACAGCACGAGAGAUGAUGCCCUGCAACAGAGGAUUGAGCAUCA
B18: chr14:89338683:89338684:+_ENSG00000165533_ENST00000346301|hu_hu|hu_hu_hu_mus_False|38_108 (ssRNA)
RNA: GGGAGUUCUACAGUCCGACGAUCGUGGUUGUUGUUGACCAGGGCCAGCCUGAAGCAUUGGUGGGCCAAGUUUGUAUCUCCGAUUCCCACAGCUAUGUGUCCCAAGUUGUACCAGACAUCAGCUGCCUCUUCUUCAUUUUCAGCCAACAGAGGAUUGAGCAUCA
B19: chr14:66974463:66974464:+_ENSMUSG00000022044_ENSMUST00000074523|mus_hu|mus_mus_mus_hu_False|1_8 (ssRNA)
RNA: GGGAGUUCUACAGUCCGACGAUCUUGUAGGACGACUUAUUCAGGGGAUCGGCCAGGAAGCAGGAGCAGAACAAGGACACCAGCGGGAGCUCCUUCAUCUUCUCUUUGUAGGCAGCAAGGGUCAUGUUGGCUGGAAUCUGGUGGCAACAGAGGAUUGAGCAUCA
B20: chr2:217001844:217001845:+_ENSG00000079246_ENST00000392132|hu_hu|hu_hu_hu_mus_False|78_98 (ssRNA)
RNA: GGGAGUUCUACAGUCCGACGAUCACCAACUUGAGGAUUAGCUCUUUUGUCAUAAGCAUAUCGAACUAUGGCGACCAUGUUUAACUCAUCCAAAGCAUGAACGAGAGAGGAAAGGGCAACAGCUGCCGCCUCAUCAUCCUUUGCCAACAGAGGAUUGAGCAUCA
B21: chr14:60920330:60920331:+_ENSMUSG00000021987_ENSMUST00000022563|mus_mus|FALSE|FALSE (ssRNA)
RNA: GGGAGUUCUACAGUCCGACGAUCGCAAAAUCUCCACUACCCGCACUUCCCUUUUUCCUUUACCUGAAAGUUUAUAGGCAGCUACAGUCAAGUUAAAAAUGUAUUUAGUACUCAGAACGCUUUAGAGCUUUGCCACUUUAAAUGCAACAGAGGAUUGAGCAUCA
B22: chr1:169080634:169080635:+_ENSG00000143153_ENST00000367816|hu_hu|FALSE|FALSE (ssRNA)
RNA: GGGAGUUCUACAGUCCGACGAUCGGUGAGCAGCAUCACUUGGAUGGUUCCGAUGAAGAUGCCAGCCAGGCAGCCAUAAAAUAUUACGUAGAAUAGAAGGAUCUUAAACCAACUGCCACCGGUCCUGCCCAGAAACUCCUUCUUCAACAGAGGAUUGAGCAUCA

Each binder was assayed against T1, UNK ZnF1-3 (assay: nsRBNS (natural sequence RNA bind-n-seq); RBNS binding buffer (assumed for nsRBNS): 25 mM Tris pH 7.5, 150 mM KCl, 3 mM MgCl2, 0.01% Triton X-100, 500 ug/ml BSA, 20 U/ml SUPERase-In, 4 C; UNK is unkempt and MSI1 is Musashi-1; names of the RNAs are library labels; protein concentration not given here; high values mean tight binding).

| Binder | binding signal [enrichment R] |
| --- | --- |
| B1 | 0.782 |
| B2 | 0.974 |
| B3 | 0.896 |
| B4 | 1.64 |
| B5 | 1.23 |
| B6 | 1.75 |
| B7 | 1.68 |
| B8 | 1.35 |
| B9 | 0.782 |
| B10 | 0.926 |
| B11 | 1.03 |
| B12 | 0.856 |
| B13 | 0.745 |
| B14 | 1.59 |
| B15 | 0.634 |
| B16 | 1.23 |
| B17 | 1.75 |
| B18 | 0.722 |
| B19 | 2.33 |
| B20 | 2.01 |
| B21 | 1.3 |
| B22 | 2.19 |
